# The list shows a part of the results.
# B1: laminarinase (Bacillus halodurans), Q9KBL8 (protein)
# chain: EETIELEGEVIPARLLSTKVKALNYDDYHNVLIDRCVEGGESIRGLGDGSWIAFHDINLEQPTNLLTVRAANENKQAVLEIRADRVDGPLVSQSVIPPTGGLQAWTTVTAQVNGETSEIRDLYLVFKGEFQLSWFSFS
# Legend:
# Experiment in all cases: glycan array binding signal (z-score within array); higher = stronger binding
# Details in all cases: glycan notation: IUPAC condensed, linker removed
# [1] = target: Glc(a1-2)Glc
# How it was run: (§1)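 The binding signal is a Z-score computed within each array. Data were drawn from 3228 arrays in the Consortium for Functional Glycomics database, restricted to those with a known protein sequence. Scores were averaged over arrays of the same protein sequence at different concentrations or buffers, and over linkers, and negative values can be taken as non-binding.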
# [2] = target: Glc(a1-2)Glc(a1-2)Glc
# How it was run: as §1
# [3] = target: Glc(a1-2)Glc(a1-2)Glc(a1-2)Glc
# How it was run: as §1
# [4] = target: Glc(a1-2)Glc(a1-2)Glc(a1-2)Glc(a1-2)Glc
# How it was run: as §1
# [5] = target: Glc(a1-2)Glc(a1-2)Glc(a1-2)Glc(a1-2)Glc(a1-2)Glc
# How it was run: as §1
# [6] = target: Glc(a1-2)Glc(a1-2)Glc(a1-2)Glc(a1-2)Glc(a1-2)Glc(a1-2)Glc
# How it was run: as §1
# [7] = target: Glc(a1-2)Glc(a1-2)Glc(a1-2)Glc(a1-2)Glc(a1-2)Glc(a1-2)Glc(a1-2)Glc
# How it was run: as §1
# [8] = target: Glc(a1-2)Glc(a1-2)Glc(a1-2)Glc(a1-2)Glc(a1-2)Glc(a1-2)Glc(a1-2)Glc(a1-2)Glc
# How it was run: as §1
# [9] = target: Glc(a1-3)Glc
# How it was run: as §1
# [10] = target: Glc(a1-3)Glc(a1-3)Glc
# How it was run: as §1
# [11] = target: Glc(a1-3)Glc(a1-3)Glc(a1-3)Glc
# How it was run: as §1
# [12] = target: Glc(a1-3)Glc(a1-3)Glc(a1-3)Glc(a1-3)Glc
# How it was run: as §1
# [13] = target: Glc(a1-3)Glc(a1-3)Glc(a1-3)Glc(a1-3)Glc(a1-3)Glc
# How it was run: as §1
# [14] = target: Glc(a1-3)Glc(a1-3)Glc(a1-3)Glc(a1-3)Glc(a1-3)Glc(a1-3)Glc
# How it was run: as §1
# [15] = target: Glc(a1-3)Glc(a1-3)Glc(a1-3)Glc(a1-3)Glc(a1-3)Glc(a1-3)Glc(a1-3)Glc
# How it was run: as §1
# [16] = target: Glc(a1-3)Glc(a1-3)Glc(a1-3)Glc(a1-3)Glc(a1-3)Glc(a1-3)Glc(a1-3)Glc(a1-3)Glc
# How it was run: as §1
# [17] = target: Glc(a1-3)Glc(a1-3)Glc(a1-3)Glc(a1-3)Glc(a1-3)Glc(a1-3)Glc(a1-3)Glc(a1-3)Glc(a1-3)Glc
# How it was run: as §1
# [18] = target: Glc(a1-3)Glc(a1-3)Glc(a1-3)Glc(a1-3)Glc(a1-3)Glc(a1-3)Glc(a1-3)Glc(a1-3)Glc(a1-3)Glc(a1-3)Glc
# How it was run: as §1
# [19] = target: Glc(a1-3)Glc(a1-3)Glc(a1-3)Glc(a1-3)Glc(a1-3)Glc(a1-3)Glc(a1-3)Glc(a1-3)Glc(a1-3)Glc(a1-3)Glc(a1-3)Glc
# How it was run: as §1
# [20] = target: Glc(a1-3)Glc(a1-3)Glc(a1-3)Glc(a1-3)Glc(a1-3)Glc(a1-3)Glc(a1-3)Glc(a1-3)Glc(a1-3)Glc(a1-3)Glc(a1-3)Glc(a1-3)Glc
# How it was run: as §1
# [21] = target: Glc(a1-4)Glc
# How it was run: as §1
# [22] = target: Glc(a1-4)Glc(a1-4)Glc
# How it was run: as §1
# [23] = target: Glc(a1-4)Glc(a1-4)Glc(a1-4)Glc
# How it was run: as §1
# [24] = target: Glc(a1-4)Glc(a1-4)Glc(a1-4)Glc(a1-4)Glc
# How it was run: as §1
# [25] = target: Glc(a1-4)Glc(a1-4)Glc(a1-4)Glc(a1-4)Glc(a1-4)Glc
# How it was run: as §1
# [26] = target: Glc(a1-4)Glc(a1-4)Glc(a1-4)Glc(a1-4)Glc(a1-4)Glc(a1-4)Glc
# How it was run: as §1
# [27] = target: Glc(a1-4)Glc(a1-4)Glc(a1-4)Glc(a1-4)Glc(a1-4)Glc(a1-4)Glc(a1-4)Glc
# How it was run: as §1
# [28] = target: Glc(a1-4)Glc(a1-4)Glc(a1-4)Glc(a1-4)Glc(a1-4)Glc(a1-4)Glc(a1-4)Glc(a1-4)Glc
# How it was run: as §1
# [29] = target: Glc(a1-4)Glc(a1-4)Glc(a1-4)Glc(a1-4)Glc(a1-4)Glc(a1-4)Glc(a1-4)Glc(a1-4)Glc(a1-4)Glc
# How it was run: as §1
# [30] = target: Glc(a1-4)Glc(a1-4)Glc(a1-4)Glc(a1-4)Glc(a1-4)Glc(a1-4)Glc(a1-4)Glc(a1-4)Glc(a1-4)Glc(a1-4)Glc
# How it was run: as §1
# [31] = target: Glc(a1-4)Glc(a1-4)Glc(a1-4)Glc(a1-4)Glc(a1-4)Glc(a1-4)Glc(a1-4)Glc(a1-4)Glc(a1-4)Glc(a1-4)Glc(a1-4)Glc
# How it was run: as §1
# [32] = target: Glc(a1-4)Glc(a1-4)Glc(a1-4)Glc(a1-4)Glc(a1-4)Glc(a1-4)Glc(a1-4)Glc(a1-4)Glc(a1-4)Glc(a1-4)Glc(a1-4)Glc(a1-4)Glc
# How it was run: as §1
# [33] = target: Glc(a1-4)Glc(a1-6)Glc
# How it was run: as §1
# [34] = target: Glc(a1-6)Glc
# How it was run: as §1
# [35] = target: Glc(a1-6)Glc(a1-4)Glc
# How it was run: as §1
# [36] = target: Glc(a1-6)Glc(a1-4)Glc(a1-4)Glc
# How it was run: as §1
# [37] = target: Glc(a1-6)Glc(a1-4)Glc(a1-4)Glc(a1-6)Glc(a1-4)Glc(a1-4)Glc
# How it was run: as §1
# [38] = target: Glc(a1-6)Glc(a1-6)Glc
# How it was run: as §1
# [39] = target: Glc(a1-6)Glc(a1-6)Glc(a1-6)Glc
# How it was run: as §1
# [40] = target: Glc(a1-6)Glc(a1-6)Glc(a1-6)Glc(a1-6)Glc
# How it was run: as §1
# [41] = target: Glc(a1-6)Glc(a1-6)Glc(a1-6)Glc(a1-6)Glc(a1-6)Glc
# How it was run: as §1
# [42] = target: Glc(a1-6)Glc(a1-6)Glc(a1-6)Glc(a1-6)Glc(a1-6)Glc(a1-6)Glc
# How it was run: as §1
# [43] = target: Glc(a1-6)Glc(a1-6)Glc(a1-6)Glc(a1-6)Glc(a1-6)Glc(a1-6)Glc(a1-6)Glc
# How it was run: as §1
# [44] = target: Glc(a1-6)Glc(a1-6)Glc(a1-6)Glc(a1-6)Glc(a1-6)Glc(a1-6)Glc(a1-6)Glc(a1-6)Glc
# How it was run: as §1
# [45] = target: Glc(a1-6)Glc(a1-6)Glc(a1-6)Glc(a1-6)Glc(a1-6)Glc(a1-6)Glc(a1-6)Glc(a1-6)Glc(a1-6)Glc
# How it was run: as §1
# [46] = target: Glc(a1-6)Glc(a1-6)Glc(a1-6)Glc(a1-6)Glc(a1-6)Glc(a1-6)Glc(a1-6)Glc(a1-6)Glc(a1-6)Glc(a1-6)Glc
# How it was run: as §1
# [47] = target: Glc(a1-6)Glc(a1-6)Glc(a1-6)Glc(a1-6)Glc(a1-6)Glc(a1-6)Glc(a1-6)Glc(a1-6)Glc(a1-6)Glc(a1-6)Glc(a1-6)Glc
# How it was run: as §1
# [48] = target: Glc(a1-6)Glc(a1-6)Glc(a1-6)Glc(a1-6)Glc(a1-6)Glc(a1-6)Glc(a1-6)Glc(a1-6)Glc(a1-6)Glc(a1-6)Glc(a1-6)Glc(a1-6)Glc
# How it was run: as §1
# [49] = target: Glc(b1-2)Glc
# How it was run: as §1
# [50] = target: Glc(b1-2)Glc(b1-2)Glc
# How it was run: as §1
# [51] = target: Glc(b1-2)Glc(b1-2)Glc(b1-2)Glc
# How it was run: as §1
# [52] = target: Glc(b1-2)Glc(b1-2)Glc(b1-2)Glc(b1-2)Glc
# How it was run: as §1
# [53] = target: Glc(b1-2)Glc(b1-2)Glc(b1-2)Glc(b1-2)Glc(b1-2)Glc
# How it was run: as §1
# [54] = target: Glc(b1-2)Glc(b1-2)Glc(b1-2)Glc(b1-2)Glc(b1-2)Glc(b1-2)Glc
# How it was run: as §1
# [55] = target: Glc(b1-2)Glc(b1-2)Glc(b1-2)Glc(b1-2)Glc(b1-2)Glc(b1-2)Glc(b1-2)Glc
# How it was run: as §1
# [56] = target: Glc(b1-2)Glc(b1-2)Glc(b1-2)Glc(b1-2)Glc(b1-2)Glc(b1-2)Glc(b1-2)Glc(b1-2)Glc
# How it was run: as §1
# [57] = target: Glc(b1-2)Glc(b1-2)Glc(b1-2)Glc(b1-2)Glc(b1-2)Glc(b1-2)Glc(b1-2)Glc(b1-2)Glc(b1-2)Glc
# How it was run: as §1
binder,measurement,setting,value
B1,glycan array binding signal (z-score),[1],-0.688
same,glycan array binding signal (z-score),[2],-0.688
same,glycan array binding signal (z-score),[3],-0.688
same,glycan array binding signal (z-score),[4],-0.656
same,glycan array binding signal (z-score),[5],-0.688
same,glycan array binding signal (z-score),[6],-0.688
same,glycan array binding signal (z-score),[7],-0.688
same,glycan array binding signal (z-score),[8],-0.688
same,glycan array binding signal (z-score),[9],-0.688
same,glycan array binding signal (z-score),[10],-0.688
same,glycan array binding signal (z-score),[11],-0.688
same,glycan array binding signal (z-score),[12],-0.688
same,glycan array binding signal (z-score),[13],-0.686
same,glycan array binding signal (z-score),[14],-0.672
same,glycan array binding signal (z-score),[15],-0.639
same,glycan array binding signal (z-score),[16],-0.633
same,glycan array binding signal (z-score),[17],-0.658
same,glycan array binding signal (z-score),[18],-0.679
same,glycan array binding signal (z-score),[19],-0.654
same,glycan array binding signal (z-score),[20],-0.636
same,glycan array binding signal (z-score),[21],-0.688
same,glycan array binding signal (z-score),[22],-0.688
same,glycan array binding signal (z-score),[23],-0.687
same,glycan array binding signal (z-score),[24],-0.687
same,glycan array binding signal (z-score),[25],-0.688
same,glycan array binding signal (z-score),[26],-0.682
same,glycan array binding signal (z-score),[27],-0.675
same,glycan array binding signal (z-score),[28],-0.679
same,glycan array binding signal (z-score),[29],-0.679
same,glycan array binding signal (z-score),[30],-0.679
same,glycan array binding signal (z-score),[31],-0.678
same,glycan array binding signal (z-score),[32],-0.678
same,glycan array binding signal (z-score),[33],-0.688
same,glycan array binding signal (z-score),[34],-0.688
same,glycan array binding signal (z-score),[35],-0.688
same,glycan array binding signal (z-score),[36],-0.688
same,glycan array binding signal (z-score),[37],-0.688
same,glycan array binding signal (z-score),[38],-0.688
same,glycan array binding signal (z-score),[39],-0.688
same,glycan array binding signal (z-score),[40],-0.688
same,glycan array binding signal (z-score),[41],-0.688
same,glycan array binding signal (z-score),[42],-0.688
same,glycan array binding signal (z-score),[43],-0.684
same,glycan array binding signal (z-score),[44],-0.674
same,glycan array binding signal (z-score),[45],-0.679
same,glycan array binding signal (z-score),[46],-0.611
same,glycan array binding signal (z-score),[47],-0.676
same,glycan array binding signal (z-score),[48],-0.688
same,glycan array binding signal (z-score),[49],-0.539
same,glycan array binding signal (z-score),[50],-0.286
same,glycan array binding signal (z-score),[51],0.121
same,glycan array binding signal (z-score),[52],1.6
same,glycan array binding signal (z-score),[53],1.8
same,glycan array binding signal (z-score),[54],1.4
same,glycan array binding signal (z-score),[55],1.39
same,glycan array binding signal (z-score),[56],2.57
same,glycan array binding signal (z-score),[57],1.26
